# PubChem BioAssay AID1963576 (National Center for Advancing Translational Sciences (NCATS), 2024)
# The whole screen tested about 46,000 compounds, of which about 60 (0.1%) were called active. About 3% were inconclusive and are not listed. The call rests on the fitted dose curve; in most records, active means well fitted inhibition curve with a large enough effect; inconclusive means small, poorly fitted or top-dose-only effect; inactive means no such curve, though single readings can be large or run the other way. This is one part of the list.
# Test: Primary qHTS assay for Inhibitors of ovarian cancer metastasis using an organotypic tumor microenvironment (TME) model. Further: nearly all actives have a fitted effect of over 65% in size.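 On activity change, negative = inhibition: plate controls were DMSO wells for no effect and tomatine positive control wells for full effect.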
# Conditions: SKOV3ip1-GFP adhesion/invasion on 3D omental model, fluorescence; series mostly up to 45.8 µM; activity change, negative = inhibition: at the top concentration
# How it was run: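 A 3D layer of primary human omental fibroblasts, mesothelial cells, fibronectin and collagen I, grown 48 hr, received SKOV3ip1-GFP cells in serum-free medium plus compounds at 0.36-46 umol/L. After 2 hr RT and 16 hr 37 C, fixed adherent GFP cells were counted; normalized to DMSO and tomatine.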
SMILES,"activity change, negative = inhibition",outcome
COc1ccc(CNC(=O)Cn2nc3c(cc2=O)CCCC3)cc1,inactive: 6.08%,–
Cc1ccc(-n2nc(C)c3nc(CCC(=O)Nc4cccc(C)c4C)c(=O)n(C)c32)cc1,inactive: 4.78%,–
CCOC(=O)c1ccc(NC(=O)CSc2c(C(C)C)cnc3c2c(=O)n(C)c(=O)n3C)cc1,inactive: -7.29%,–
COc1ccc(-c2nc3sc(CCNC(=O)c4cc(OC)c(OC)c(OC)c4)c(C)n3n2)cc1,–,inactive
CCOc1ccc(NC(=O)CSc2ncc3c(n2)-c2ccc(Cl)cc2N(Cc2ccccc2)S3(=O)=O)cc1,inactive: 7.92%,–
COc1ccc(N2CCN(S(=O)(=O)c3ccc4oc(=O)c5ncn(C)c5c4c3)CC2)cc1,inactive: -18.8%,–
CCc1ccc(CNC(=O)CN2C(=O)c3cccnc3Oc3ccc(Cl)cc32)cc1,inactive: -3.16%,–
Cc1ccc(-c2nc(C)c(CCNC(=O)c3ccco3)s2)cc1,inactive: -7.13%,–
O=C(CSc1nc2ccccc2nc1Cc1ccc(Cl)cc1)N1CCc2ccccc21,inactive: 9.17%,–
O=C(CSC1=Nc2ccccc2C2=NC(CC(=O)NC3CCCCC3)C(=O)N12)Nc1ccc(F)cc1 (stereo unspecified),inactive: -2.6%,–
CCN(c1cccc(C)c1)S(=O)(=O)c1nnc(NC(=O)C2CCCCC2)s1,inactive: 2.51%,–
Cc1c2cnn(-c3ccccc3)c(=O)c2c(C)n1CCCC(=O)Nc1cc(F)ccc1F,inactive: 9.8%,–
Cc1cccc(C)c1NC(=O)C(NS(=O)(=O)c1ccc2c(c1)CCC(=O)N2)c1ccccc1 (stereo unspecified),–,inactive
COC(=O)c1nc2n(n1)C(c1cccc(Cl)c1)C(C(=O)Nc1ccccc1OC)=C(C)N2 (stereo unspecified),inactive: 17.5%,–
CCOc1ccc(C2c3[nH]c4ccccc4c3CCN2C(=O)CCc2ccccc2)cc1 (stereo unspecified),–,inactive
Cc1ccc(C)c(N2CCN(S(=O)(=O)c3cc(Br)cc4c3N(C(=O)C3CC3)CC4)CC2)c1,inactive: 0.308%,–
COc1ccc(C)cc1NC(=O)c1oc2ccc(S(=O)(=O)N3CCCCC3)cc2c1C,inactive: 1.27%,–
NC(=O)c1c(NC(=O)c2nc(SCc3ccccc3F)ncc2Cl)sc2c1CCCC2,inactive: 7.73%,–
Cc1ccc2[nH]c(CSc3nnc(NC(=O)COc4ccccc4)s3)cc(=O)c2c1,inactive: 0.743%,–
COc1ccc(-n2c(SCC(=O)Nc3ccc(Cl)c(C)c3)nc3n[nH]c(C)c3c2=N)cc1,inactive: -7.47%,–
CCOc1ccc(CCNC(=O)c2sc3nc4n(c(=O)c3c2C)CCCC4)cc1OCC,inactive: 8.39%,–
CCOC(=O)c1ccc(NC(=O)CCn2c(=O)c3cccn3c3ccccc32)cc1,inactive: -1.94%,–
Cc1ccc(Sc2c(C)nn(C(=O)COc3ccccc3Br)c2C)cc1,–,inactive

SMILES,"activity change, negative = inhibition",outcome
O=C(C1CCN(S(=O)(=O)c2ccc(Br)s2)CC1)N1CCN(c2cccc(Cl)c2)CC1,inactive: 2.3%,–
COc1cc(C(=O)NCCCc2nc3ccccc3n2CC(C)C)cc(OC)c1OC,–,inactive
CCOc1ccc2nc(N3CCCC(C(=O)Nc4c(C)cccc4C)C3)sc2c1 (stereo unspecified),inactive: 14.6%,–
COc1ccc(OC)c(CNC(=O)c2nn(-c3ccc(OC)c(Cl)c3)c(=O)c3c2c2ccccc2n3C)c1,inactive: 3.72%,–
CCCCn1cc(S(=O)(=O)c2ccc(C)c(C)c2)c(=O)c2cc(F)c(N3CCCC(C)C3)cc21 (stereo unspecified),inactive: -0.773%,–
CCS(=O)(=O)N1CCc2cc(C(=O)Nc3ccc(OC)c(Cl)c3)ccc21,inactive: -0.787%,–
O=C(Nc1nc2ccc(S(=O)(=O)N3CCCC3)cc2s1)c1cccc(F)c1,inactive: -4.84%,–
CCOC(=O)c1sc2ncn(CC(=O)Nc3ccc(N(C)C)cc3)c(=O)c2c1C,–,inactive
Cc1cc(C)cc(-n2ccnc2SCC(=O)Nc2nnc(C)s2)c1,inactive: -21.4%,–
COc1ccc(S(=O)(=O)n2nc(C)c(S(=O)(=O)N3CCC(C)CC3)c2C)cc1C,inactive: 1.23%,–
CCOc1ccc(CC(=O)NCCc2csc(-c3ccc(C)cc3)n2)cc1,–,inactive
COc1ccc(CCNS(=O)(=O)c2ccc3c(c2)CC(C)N3C(=O)C2CCC2)cc1OC (stereo unspecified),inactive: -1.23%,–
CCC(=O)Nc1c(C(=O)N2CCN(c3ccc(F)cc3)CC2)oc2ccccc12,inactive: -1.43%,–
COc1ccc(CCNC(=O)CCCn2c(=O)c3ccccc3n(Cc3cccc(Cl)c3)c2=O)cc1OC,inactive: 18.7%,–
Cc1ccc(-c2nc3scc(CCNC(=O)Cc4ccc(Cl)cc4)n3n2)cc1,inactive: 0.41%,–
CCOc1ccc(N(C(=O)CC(C)C)S(=O)(=O)c2ccc3c(c2)oc(=O)n3C)cc1,inactive: -9.41%,–
Cn1c(SCc2ccc(F)cc2)nc2ccc(C(=O)NCc3ccc(Cl)cc3)cc21,inactive: 4.72%,–
COc1ccc(-c2noc(CN(C(=O)COc3cc(C)c(Br)c(C)c3)C(C)C)n2)cc1,inactive: 0.923%,–
Cc1ccc(NC(=O)Cn2cc(C(=O)C3CC3)c3ccccc32)cc1,inactive: -3.81%,–
COc1ccc(NC(=O)Cn2nnc(C(=O)Nc3ccc(F)c(Cl)c3)c2N)cc1OC,inactive: 2.89%,–
CCC1CN(C(=O)N2CCC(C(=O)NCCc3ccc(Cl)cc3)CC2)c2ccccc2O1 (stereo unspecified),–,inactive
Cc1cccc(C)c1NC(=O)CSc1nc(-c2ccccc2)nc2c1Cc1c(CO)cnc(C)c1O2,inactive: 5.98%,–
CCCn1c(SCc2nc(-c3ccc(OC)cc3OC)no2)nnc1-c1ccc(Cl)cc1,inactive: -0.976%,–
